# The whole screen tested about 420,000 compounds, of which about 50,000 (12%) were called active. The inconclusive results got no clear call from the source; some entries with a clear call stand among them for comparison. Calls come from the whole dose curve; as a rule, active = well fitted inhibition curve with a large enough effect; inconclusive = small, poorly fitted or top-dose-only effect; inactive = flat fitted curve, though single readings scatter. No potency is given beside an inconclusive call; the fits are too rough.
# Assay: qHTS for Inhibitors of human tyrosyl-DNA phosphodiesterase 1 (TDP1): qHTS in cells in presence of CPT; note: nearly all actives have a fitted effect of over 55% in size
# Details: chicken DT40 Tdp1-/-;hTDP1 cells + 20 nM CPT, ATP luminescence, 48 h; series mostly up to 46.2 µM
# How it was run: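 Chicken DT40 Tdp1-/- cells complemented with human TDP1, 400 cells/well, exposed to compounds plus 20 nM camptothecin for at least 48 h at 37 C; viability read as ATP content by CellTiter-Glo luminescence.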
# Potency is the fitted concentration of half-maximal effect; tags give direction and shape of the fitted curve.
row,Compound,Potency
1,COc1cc(OC)c(NC(=S)Nc2cc(Cl)cc(Cl)c2)cc1Cl,"inconclusive [inhibitor, single point]"
2,Cn1c(O)c(N=NC(=O)Cn2c(C(F)(F)F)nc3ccccc32)c2ccccc21,active: 20.6 µM
3,Cc1ccc(Nc2nnc(SC(C)C(=O)NCC3CCCO3)s2)cc1C (stereo unspecified),"inconclusive [inhibitor, single point]"
4,COc1ccc(-c2nc3ccc(C)cn3c2NCc2ccc3c(c2)OCO3)cc1,inactive
5,COc1cccc(NC(=O)N2CCCc3ccccc32)c1,inactive
6,Cc1ccccc1N1Cc2ccccc2C1,"inconclusive [inhibitor, partial curve, poor fit]"
7,Cc1cc(C)cc(OCC(=O)Nc2ccc3c4c(cccc24)CC3)c1,"inconclusive [inhibitor, partial curve]"
8,O=C(NCc1cccnc1)C12CC3CC(CC(C3)C1)C2,inactive
9,COc1ccc2c(CN3CCCCC3)cc(=O)oc2c1,inactive
10,CCOC(=O)c1[nH]c(C)c(C(=O)Nc2ccc(C)c(Cl)c2)c1C,active: 16.4 µM
11,CC(C)NC(=O)c1cc2c(Cl)nc3ccccc3c2s1,inactive
12,COc1ccc(/C=C(\NC(=O)c2cccs2)C(=O)Nc2cccc3ccccc23)cc1OC,"inconclusive [inhibitor, single point]"
13,O=C1C(Oc2ccccc2)C(c2ccc3c(c2)OCO3)N1CCc1ccc(F)cc1 (stereo unspecified),inactive
14,CCC(=O)N1CCc2cc(S(=O)(=O)CCC(=O)NCc3ccc(F)cc3)ccc21,active: 6.51 µM
15,CCOC(=O)[C@]12CCCC=C1N(Cc1ccccc1)C(=O)[C@H](CC(=O)NCCc1ccccc1OC)C2,"inconclusive [inhibitor, single point]"
16,CC12CCC(O)CC1=CCC1C2CCC2(C)C3=NN=CC3CC12 (stereo unspecified),inactive
17,Cc1c(C(=O)N2CCOCC2)sc(NC(=O)CCl)c1C#N,active: 13 µM
18,Cc1cc(O)c(C(=O)c2cnc3c(c2)COc2ccccc2-3)cc1Cl,"inconclusive [inhibitor, single point]"
19,CCCN1CNc2c(c(=O)[nH]c(=S)n2CCc2cc(C)ccc2C)C1,"inconclusive [inhibitor, single point]"
20,Cc1ccc(CNC(=O)c2ccc3c(c2)N(Cc2cccc(Cl)c2)C(=O)CS3)cc1,"inconclusive [inhibitor, single point]"
21,CCSc1nc(=S)cc(C)[nH]1,"inconclusive [inhibitor, single point]"
22,Cc1cccc(NC(=O)Nc2c(C)n(C)n(-c3ccccc3)c2=O)c1C,inactive
23,CCn1c(=O)c([N+](=O)[O-])c(NCCc2ccccc2)c2ccccc21,"inconclusive [inhibitor, single point]"
24,CCc1ccn2cc(-c3ccc4c(c3)OCO4)nc2c1,inactive
25,CSc1ccccc1NC(=O)c1ccc(Cl)s1,"inconclusive [inhibitor, partial curve, poor fit]"
26,O=C(c1ccc(C#CC2(O)CCCCC2)cc1)N1CCN(C(c2ccccc2)c2ccccc2)CC1,"inconclusive [inhibitor, single point]"

row,Compound,Potency
1,CCC1(C)Cc2ccccc2/C(=C/C(=O)N2CCCCC2)N1 (stereo unspecified),active: 18.4 µM
2,CCOC(=O)c1ccccc1NC(=O)Cc1ccccc1OC,"inconclusive [inhibitor, full curve, poor fit]"
3,Nn1c(Cc2cccc3ccccc23)nnc1SCc1ccccc1,"inconclusive [inhibitor, single point]"
4,CCCS(=O)(=O)NC(=O)C1(C)CCCN(C(=O)c2ccc(OC)cc2)C1 (stereo unspecified),inactive
5,Cc1ccc(Cl)cc1NC(=O)Cn1c(=O)n(CCC(=O)N2CCc3ccccc3C2)c(=O)c2ccccc21,"inconclusive [inhibitor, partial curve]"
6,CCOc1ccc(NC(=O)Cn2cc(C(=O)c3ccc(C)c(C)c3)c(=O)c3cc(F)ccc32)cc1,inactive
7,O=S(=O)(c1cccc2cccnc12)N1CCN(Cc2ccccc2)CC1,inactive
8,O=C(Nc1cnc2ccccc2c1)N1CCCCC1,inactive
9,Cc1cccc(NC(=O)/C(C#N)=C/c2cn(CC(=O)NCc3ccco3)c3ccccc23)c1C,"inconclusive [inhibitor, single point]"
10,COC(=O)CN1C(=S)N(c2ccc(OC)cc2)C(=O)/C1=C/c1ccc(OC)cc1,"inconclusive [inhibitor, single point]"
11,COc1ccc(C(=O)Nc2nnc(SCC(=O)NCC3CCCO3)s2)cc1OC (stereo unspecified),inactive
12,CC(c1ccccc1)c1nnc(NC(=O)c2ccc3c(c2)OCO3)s1 (stereo unspecified),"inconclusive [inhibitor, single point]"
13,COC(=O)C1=CN(c2ccc(C(C)(C)C)cc2)C(N)=C(C#N)C1c1cccc2ccccc12 (stereo unspecified),active: 14.6 µM
14,O=c1c2ccccc2sc2ccc(NCCCN3CCOCC3)cc12,"inconclusive [inhibitor, single point]"
15,Cc1nc(SCC(=O)N(CC(C)C)C2CCS(=O)(=O)C2)c2ccccc2n1 (stereo unspecified),inactive
16,Cc1cc(C)n(-c2nc3nonc3nc2-n2nc(C)cc2C)n1,inactive
17,O=C(Nc1ccccc1N1CCCC1)c1cc(S(=O)(=O)N2CCOCC2)ccc1Cl,"inconclusive [inhibitor, single point]"
18,COc1ccc(-c2c(C#N)c(SCc3c(C)noc3C)nc3c2C(=O)CC(C)(C)C3)cc1,inactive
19,C=CCn1c(COc2cccc3ccc(C)nc23)nnc1SCC(=O)OC,inactive
20,Cc1nnc(NC(=O)c2ccc(F)c(S(=O)(=O)N3CCOCC3)c2)s1,inactive
21,Cc1cc(=O)[nH]c(N=N/C(=N/Nc2ccc(O)cc2)c2ccccc2)n1,active: 5.8 µM
22,COc1cc(NC(=O)CSc2nc3nc(C)c(Cc4ccccc4)c(C)n3n2)cc(OC)c1,active: 20.6 µM
23,COc1ccc2c(COC(=O)c3n[nH]c4ccccc34)cc(=O)oc2c1,"inconclusive [inhibitor, single point]"
24,COc1cccc(-c2cc(NC=O)c3ncc(-c4ccc(F)c(Cl)c4)n3c2)c1,"inconclusive [inhibitor, single point]"
25,CCN(c1ccc(C)cc1C)S(=O)(=O)c1nnc(NC(=O)CC(C)C)s1,"inconclusive [inhibitor, single point]"
26,COc1ccccc1N1CCN(C(=O)c2onc(C)c2Cl)CC1,"inconclusive [inhibitor, single point]"

row,Compound,Potency
1,CC(=O)Nc1ccc(C(=O)N2CCCC(c3cc(C(=O)Nc4ccccc4Cl)no3)C2)cc1 (stereo unspecified),"inconclusive [inhibitor, partial curve]"
2,CCOC(=O)NC(O)C(=O)c1cccs1 (stereo unspecified),"inconclusive [inhibitor, single point]"
3,O=C1CC(C(=O)O)S/C(=N\NC(=O)c2ccc(F)cc2)N1 (stereo unspecified),inactive
4,COc1ccc(OC)c(NC(=O)CSc2nnc(-c3cccnc3)s2)c1,"inconclusive [inhibitor, single point]"
5,COCCN1CCn2c(nc3cc([N+](=O)[O-])ccc32)C1,inactive
6,c1ccc(-c2cnc(-c3ccccn3)nn2)cc1,"inconclusive [inhibitor, single point]"
7,Cc1cccn(Cc2c(Cl)cccc2Cl)c1=O,inactive
8,CSCCC(NC(=O)/C(=C/c1ccco1)NC(=O)c1ccc(Br)o1)C(=O)O (stereo unspecified),inactive
9,Cc1cccc(NC(=O)c2nc[nH]c2C(=O)Nc2ccccc2F)c1,"inconclusive [inhibitor, single point]"
10,CC(C)CC(N)c1csc(Nc2ccc(S(C)(=O)=O)cc2)n1 (stereo unspecified),inactive
11,Cc1cccc(S(=O)(=O)Nc2ccc(-c3ccc4nncn4n3)cc2)c1,"inconclusive [inhibitor, partial curve]"
12,CCN(CC)c1nn2c(=O)c(C(=O)NCc3cccc(OC)c3OC)cnc2s1,"inconclusive [inhibitor, partial curve]"
13,CCn1c(CSCc2ccccc2)n[nH]c1=S,"inconclusive [inhibitor, single point]"
14,O=c1c(-c2ccc(F)cc2)nc2cnc(N3CCOCC3)nc2n1C1CC1,inactive
15,O=C(NCCN1CCCC1)c1ccc2c(=O)n(CCc3ccccc3)c(=O)[nH]c2c1,active: 18.4 µM
16,COc1cccc(NC(=O)CSc2cc(C)[nH]c(=O)n2)c1,inactive
17,Cc1cc(C)n(CCN(C)C(=O)CCc2nnc(CCC3CCCCC3)o2)n1,"inconclusive [inhibitor, single point]"
18,COc1ccc(/C=N/Nc2nccnc2Cl)cc1,active: 9.2 µM
19,CCN1C(=O)[C@@H]2[C@@H](c3ccc(SC4CCCCC4)c(OC)c3)N3CCCC[C@@]3(C(=O)OC)[C@@H]2C1=O,active: 20.6 µM
20,O=c1[nH]nc(-c2cccs2)c2ccccc12,"inconclusive [inhibitor, single point]"
21,CCc1cc(=O)n2c([nH]c3ccccc32)c1C#N,"inconclusive [inhibitor, single point]"
22,CC(=O)c1ccc(OCCCC(=O)Nc2ccc(C)c(S(=O)(=O)N3CCCCC3)c2)cc1,"inconclusive [inhibitor, partial curve]"
23,CC1N=C2c3ccccc3N=C(SCC(=O)NCc3ccc(Cl)cc3)N2C1=O (stereo unspecified),"inconclusive [inhibitor, single point]"
24,CC1=NN(Cc2cc(C(C)(C)C)c(O)c(C(C)(C)C)c2)C(=O)C1,"inconclusive [inhibitor, single point]"
